Consider 55 compounds from ChEMBL document CHEMBL4888484, “Replenishing the malaria drug discovery pipeline: Screening and hit evaluation of the MMV Hit Generation Library 1 (HGL1) against asexual blood stage Plasmodium falciparum ,using a nano luciferase reporter read-out” (2022).

Usually % Inhibition stands for the relative decrease from the control value, in per cent.

Among all 150,000 compounds or so, about 540 (0.36%) showed an effect of 50% or more. This is one part of the list.

In this assay the test system is Plasmodium falciparum. Description: Primary screen in NF54 nanoGlo assay, in single point, at 2uM, 72h; a lower Z score goes with more inhibition. In kind it is functional, Erythrocyte. The settings on record: timepoint 72 hour.
Turning to `C[C@H]1CN(c2ncncc2Br)CCC1=O`, the “% Inhibition” value was 8% and the Z score is -1.48.
The corresponding values for `O=C(CCc1ccc(Cl)c(C(F)(F)F)c1)N1CC[C@H](Oc2cccc3cccnc23)C1` are -12% and 2.2.
The corresponding values for `Cc1[nH]nc(CCC(=O)NCCCn2ccnc2)c1C` are -16% and 1.59.
Take `Cn1c(OCC2CCOCC2)nc2ccccc21`: the “% Inhibition” value was -7% and the Z score was 1.46.
`O=S(=O)(CC1(F)CC1)Nc1cccc(Oc2ccccc2)n1`: the “% Inhibition” value is -7% and the Z score is recorded as 1.31.
The corresponding values for `CCN(CCN1CCCCCC1)Cc1nccn1C` are -3% and 0.42.
The corresponding values for `Fc1cccc([C@@H]2C=C(c3cccnc3)Nc3nc(C(F)(F)F)nn32)c1` are -5% and 0.98.
Consider `COC1CCN([C@H]2CCC[C@H]2NC(=O)Nc2ccc(-c3nccc(C)n3)cc2)C1` (stereo not given in full), for which the “% Inhibition” value was -15% and the Z score is recorded as 1.99.
As to `Cc1csc(CNC(=O)Cn2nnc3ccccc32)n1`, the “% Inhibition” value was -2% and the Z score was determined as 0.32.
Consider `Cc1cc(F)cc(C(=O)OCCC(=O)N(C)C)c1`, for which the “% Inhibition” value turned out to be 29% and the Z score is given as -3.29.
Turning to `CCn1ccnc1CNC(=O)c1cc(COc2ccc(F)c(F)c2)on1`, the “% Inhibition” value is given as -4% and the Z score came to 0.49.
For `Cc1c(S(=O)(=O)NC(=O)CC2=CCCCC2)cnn1C`, in that order: -13% and 2.47.
The corresponding values for `O=C(CCCn1cnnn1)N1CCC2(CC1)c1ccccc1C[C@@H]2O` are 4% and -0.52.
For the compound `c1nnc(C(NCC2CC3CCC2C3)C2CCCCC2)[nH]1` (stereo not given), the “% Inhibition” value was -5% and the Z score stood at 0.77.
For `CC(C)Cn1ncnc1COC(=O)c1cccnc1`, in that order: 37% and -0.9.
The corresponding values for `COc1cccc(C(=O)N2CCC[C@@]3(C2)Nc2cccnc2N=C3NCc2ccccc2)c1` are 36% and -4.04.
For `CC(C)N1CCn2c(nc3cc(C(=O)NCc4ccc(F)c(Cl)c4)ccc32)C1=O`, the “% Inhibition” value is given as 7% and the Z score is recorded as -0.96.
With `CCC[C@@]1(C)CCCN(C(=O)c2ccnc(C(=O)OC)c2)C1`, the “% Inhibition” value is recorded as -11% and the Z score was found to be 0.96.
For `CC(C)c1nnc(N2CCn3nc([C@H](O)c4nccn4C)cc3C2)s1`, the “% Inhibition” value is -17% and the Z score is reported as 1.82.
`CN(C)c1cc(C(=O)N(CC(F)F)C2CC2)ccn1`: the “% Inhibition” value is recorded as -8% and the Z score turned out to be 0.77.
For `Cc1cc(C)nc(NC(=O)N(C)Cc2nccs2)c1`, in that order: 7% and -1.07.
The corresponding values for `O=C(CCc1cccnc1)NC(Cc1ccncc1)[C@H]1C[C@H](O)C1` (stereo not given in full) are -9% and 1.65.
For `CC(C)(C)S(=O)(=O)[C@H]1CCN(C(=O)CCc2ccc(Cl)c(Cl)c2)C1`, in that order: -10% and 1.7.
With `CC[C@H](NC1CCN(Cc2ccco2)CC1)c1ccnn1C`, the “% Inhibition” value came to 14% and the Z score is recorded as -1.75.
The corresponding values for `COCCC1CCN(C(=O)c2ncc[nH]2)CC1` are -7% and 0.86.
The corresponding values for `C(=C\c1ccccc1)/CNCCN1CCOCC1` are 8% and -1.11.
The corresponding values for `C[C@H](Nc1ccc(Br)cc1)C(=O)NC(=O)NC1CCCCC1` are 4% and -0.77.
In the case of `Cc1cc2[nH]c(C(=O)NCc3ccc(N4CCOCC4)cc3)c(CN3CCCC3)c2s1`, the “% Inhibition” value is -10% and the Z score is reported as 0.93.
In the case of `COc1ccc(N2CCN(C(=O)C[C@H](C)S(=O)(=O)c3ccc4c(c3)NC(=O)CO4)CC2)cc1`, the “% Inhibition” value is 6% and the Z score is on record as -0.73.
The corresponding values for `CCOC(=O)CNC(=O)C1CCCCC1` are -6% and 0.96.
For `C[C@@H](Cn1cnc2ccccc2c1=O)NCCCn1cc(Cl)cn1`, in that order: -9% and 1.39.
For `Cc1c(-c2ccc(O)cc2)nc2nc(-c3ccccc3)c(-c3ccccc3)nn12`, in that order: -8% and 1.01.
For `CC(C)(C)OC(=O)NCC1CCN(c2nnnn2CC2CC2)CC1`, the “% Inhibition” value is 1% and the Z score is -0.11.
For `COCCCn1c(C)cnc1CC1CCN(C(=O)c2ccoc2)CC1`, in that order: -13% and 1.89.
Turning to `Cc1noc(C2CCN([C@@H](C)c3nnnn3C3CC3)CC2)n1`, the “% Inhibition” value is on record as -2% and the Z score is given as 0.24.
For `O=C(CNC(=O)Nc1ccc(Cl)cc1)N[C@H]1CCS(=O)(=O)C1`, in that order: -2% and 0.4.
The corresponding values for `CC[C@H](NCc1c(C)nc2scc(C3CC3)n12)c1ccncc1` are -4% and 0.52.
The corresponding values for `Cc1[nH]nc(C(=O)N2CCCC3(CCCCO3)C2C#N)c1C` (stereo not given) are -6% and 0.6.
For the compound `Cc1ncsc1C(=O)NCCc1ccc2c(c1)OCO2`, the “% Inhibition” value amounted to 2% and the Z score is -0.41.
Turning to `CCc1cnc(C)nc1-c1cccc(C(=O)N[C@@H](C)c2nnc(N)s2)c1`, the “% Inhibition” value is -10% and the Z score was found to be 1.86.
`COc1ccccc1C(=O)N1CCN2[C@H](CN(C(=O)NCc3ccccc3)CC2(C)C)C1`: the “% Inhibition” value came out at 1% and the Z score is recorded as -0.18.
The corresponding values for `NC(=O)c1c(NC(=O)CS(=O)(=O)Cc2ccccc2)sc2c1CCC2` are -10% and 1.94.
As for `CN(C)c1nc2c(c(N3CCC(n4c(=O)[nH]c5ccccc54)CC3)n1)CCNC2`, the “% Inhibition” value was -7% and the Z score came out at 1.39.
For `Cc1nc(C)c(C(=O)NC2CC3CCC(C2)S3(=O)=O)s1` (stereo not given), in that order: -5% and 0.6.
For `Cc1cc(N(C)C)nc(CNC(=O)Nc2ccccc2)n1`, in that order: 2% and -0.35.
The corresponding values for `CN(c1ccn(C)n1)S(=O)(=O)c1c(Cl)ccc(F)c1F` are -5% and 0.89.
On to `CC(C)[C@@H]1CN(C(=O)CCc2cnccn2)CCCN1Cc1ccc(F)cc1`, for which the “% Inhibition” value is listed as -4% and the Z score was 0.91.
For `C[C@@H](C(=O)N1CCc2[nH]c(-c3ccccc3)nc2C1)N1CCCCCC1`, in that order: -10% and 1.87.
The corresponding values for `CCCc1nc(CN2C(C)CC(C(=O)O)CC2C)cs1` (stereo not given) are -16% and 2.22.
For `CCN(CC)c1ccc(NC2=NS(=O)(=O)C(c3ccccc3)=C2C)c(C)c1`, in that order: -6% and 0.84.
Turning to `CN1C(=O)c2ccc(NC(=O)[C@@H]3CCCO3)cc2C1=O`, the “% Inhibition” value was -12% and the Z score is reported as 1.34.
For `CC(C)(c1ccc(C(=O)N[C@H]2CC[C@@H](CO)C2)cc1)C(F)(F)F`, in that order: -14% and 1.94.
For `Cc1nc(CC(=O)N2C[C@@H](F)C[C@H]2CNC(=O)N2CCCC2)cs1`, in that order: 5% and -0.86.
For `Cc1ccc2c(OC(=O)c3ccnn3C)cccc2n1`, in that order: -9% and 1.05.
For `O=C(NOC1CCCCO1)NC1CCOC1c1ccc(Cl)cc1` (stereo not given), the “% Inhibition” value was found to be 38% and the Z score is listed as -1.11.
